{"source": "the supplement of paper PMC10126150", "note": "Sequences with one replicate were seen in a single cluster, so their values are uncertain.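 Also: ATP exposure 15 min at 22 °C before imaging.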"}
{"test_system": "ATP", "experiment": "switch fluorescence ratio, 500 uM ATP over buffer (Cy3 cluster intensity, sum of 5 cycles each) (fold (ratio)); higher = stronger signal-on switching upon ATP binding; sequences stand for … in TCGTCGGCAGCGTCAGATGTGTATAAGAGACAGTTTTTTTTTTTTTTTTTTTTTTTTT…TC", "details": "aptamer strand: ATP DNA aptamer (quencher-CACCTGGGGGAGTATTGCGGAGGAAGG + anchor), 100 nM annealed; ATP concentration: 500 uM; one replicate", "in_short": "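The quencher-labelled ATP aptamer, at 100 nM, was annealed to Cy3-labelled switching-strand clusters on a modified Illumina MiSeq flow-cell. The clusters were imaged in selection buffer, then after 15 min with 500 uM ATP at 22 °C, and this buffer/ATP cycle ran five times with NaOH stripping and re-annealing between runs. Per-cluster fluorescence ratios, summed target-cycle over summed buffer-cycle Cy3 intensity, were averaged per switch-domain sequence. Clusters outside 100-1000 RFU were excluded.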"}
{"sequence": "GCTGGCGCCC", "switch fluorescence ratio": 0.992}
{"sequence": "GCTGGGATCA", "switch fluorescence ratio": 0.937}
{"sequence": "GCTGGGCGTG", "switch fluorescence ratio": 1}
{"sequence": "GCTGGGGAAT", "switch fluorescence ratio": 0.997}
{"sequence": "GCTGGGTCT", "switch fluorescence ratio": 1.02}
{"sequence": "GCTGGTTATT", "switch fluorescence ratio": 0.944}
{"sequence": "GCTGTAATGC", "switch fluorescence ratio": 1.19}
{"sequence": "GCTGTACGGC", "switch fluorescence ratio": 1.05}
{"sequence": "GCTGTACTG", "switch fluorescence ratio": 1.03}
{"sequence": "GCTGTAGCAA", "switch fluorescence ratio": 1.35}
{"sequence": "GCTGTAGCTG", "switch fluorescence ratio": 1.01}
{"sequence": "GCTGTATTTG", "switch fluorescence ratio": 1.05}
{"sequence": "GCTGTCAGGT", "switch fluorescence ratio": 1.01}
{"sequence": "GCTGTCGTGG", "switch fluorescence ratio": 0.998}
{"sequence": "GCTGTCTTGG", "switch fluorescence ratio": 1}
{"sequence": "GCTGTGCAGG", "switch fluorescence ratio": 1.04}
{"sequence": "GCTGTGCATG", "switch fluorescence ratio": 1}
{"sequence": "GCTGTTAAAT", "switch fluorescence ratio": 0.974}
{"sequence": "GCTGTTGGC", "switch fluorescence ratio": 1.02}
{"sequence": "GCTGTTGGGG", "switch fluorescence ratio": 1.01}
{"sequence": "GCTTAAATAA", "switch fluorescence ratio": 1}
{"sequence": "GCTTACGAAA", "switch fluorescence ratio": 1.07}
{"sequence": "GCTTAGGTAC", "switch fluorescence ratio": 1.06}
{"sequence": "GCTTATCCA", "switch fluorescence ratio": 0.963}
{"sequence": "GCTTATCCCG", "switch fluorescence ratio": 1.06}
{"sequence": "GCTTCACACG", "switch fluorescence ratio": 1.04}
{"sequence": "GCTTCATGGT", "switch fluorescence ratio": 1}
{"sequence": "GCTTCCGTAT", "switch fluorescence ratio": 1.18}
{"sequence": "GCTTCGACGG", "switch fluorescence ratio": 1.07}
{"sequence": "GCTTCGGTAT", "switch fluorescence ratio": 1.05}
{"sequence": "GCTTCTAATA", "switch fluorescence ratio": 1}
{"sequence": "GCTTCTTATT", "switch fluorescence ratio": 1.02}
{"sequence": "GCTTCTTGCA", "switch fluorescence ratio": 0.961}
{"sequence": "GCTTGAAATA", "switch fluorescence ratio": 1.05}
{"sequence": "GCTTGAATCC", "switch fluorescence ratio": 0.974}
{"sequence": "GCTTGCACCG", "switch fluorescence ratio": 1.02}
{"sequence": "GCTTGCTGTG", "switch fluorescence ratio": 0.939}
{"sequence": "GCTTGGGAGG", "switch fluorescence ratio": 0.996}
{"sequence": "GCTTTACGTA", "switch fluorescence ratio": 1.05}
{"sequence": "GCTTTACTAT", "switch fluorescence ratio": 0.989}
{"sequence": "GCTTTATGGC", "switch fluorescence ratio": 0.945}
{"sequence": "GCTTTCCCGG", "switch fluorescence ratio": 1.17}
{"sequence": "GCTTTGCGTC", "switch fluorescence ratio": 0.999}
{"sequence": "GCTTTGGAGA", "switch fluorescence ratio": 1.03}
{"sequence": "GCTTTTTGAT", "switch fluorescence ratio": 0.949}
{"sequence": "GGAAAAATAT", "switch fluorescence ratio": 0.933}
{"sequence": "GGAAAACCAT", "switch fluorescence ratio": 1}
{"sequence": "GGAAAGACCC", "switch fluorescence ratio": 1}
{"sequence": "GGAAAGCACG", "switch fluorescence ratio": 1.07}
{"sequence": "GGAAATGATT", "switch fluorescence ratio": 1.01}
{"sequence": "GGAACAAAGG", "switch fluorescence ratio": 0.99}
{"sequence": "GGAACATGCT", "switch fluorescence ratio": 0.947}
{"sequence": "GGAACCCCCG", "switch fluorescence ratio": 1.14}
{"sequence": "GGAACCGCCA", "switch fluorescence ratio": 1.4}
{"sequence": "GGAACGAGCG", "switch fluorescence ratio": 1.02}
{"sequence": "GGAACGCAAG", "switch fluorescence ratio": 1.14}
{"sequence": "GGAACGGTCA", "switch fluorescence ratio": 1.04}
{"sequence": "GGAACTTTGC", "switch fluorescence ratio": 1.04}
{"sequence": "GGAAGCGATG", "switch fluorescence ratio": 1.03}
{"sequence": "GGAAGGCCGT", "switch fluorescence ratio": 0.999}
{"sequence": "GGAAGTACGG", "switch fluorescence ratio": 1.37}
{"sequence": "GGAAGTCACT", "switch fluorescence ratio": 0.994}
{"sequence": "GGAAGTGAGC", "switch fluorescence ratio": 0.984}
{"sequence": "GGAAGTTACG", "switch fluorescence ratio": 1}
{"sequence": "GGAAGTTTTC", "switch fluorescence ratio": 1.1}
{"sequence": "GGAATATAAT", "switch fluorescence ratio": 1.01}
{"sequence": "GGAATGACAG", "switch fluorescence ratio": 1.01}
{"sequence": "GGAATGAGAG", "switch fluorescence ratio": 1}
{"sequence": "GGAATGGATT", "switch fluorescence ratio": 0.99}
{"sequence": "GGAATGGCGT", "switch fluorescence ratio": 0.979}
{"sequence": "GGAATGTATG", "switch fluorescence ratio": 1.04}
{"sequence": "GGAATTGGAC", "switch fluorescence ratio": 1.03}
{"sequence": "GGAATTTACC", "switch fluorescence ratio": 1.02}
{"sequence": "GGACAAGCGC", "switch fluorescence ratio": 1.02}
{"sequence": "GGACACATTC", "switch fluorescence ratio": 1.08}
{"sequence": "GGACACGTT", "switch fluorescence ratio": 0.983}
{"sequence": "GGACAGCCAC", "switch fluorescence ratio": 1.18}
{"sequence": "GGACATTAGA", "switch fluorescence ratio": 1.02}
{"sequence": "GGACCAATTG", "switch fluorescence ratio": 1.02}
{"sequence": "GGACGAAGTT", "switch fluorescence ratio": 1.02}
{"sequence": "GGACGACGCA", "switch fluorescence ratio": 1.6}
{"sequence": "GGACGCCCAC", "switch fluorescence ratio": 2.8}
{"sequence": "GGACGCTTCC", "switch fluorescence ratio": 1.46}
{"sequence": "GGACGGAGCA", "switch fluorescence ratio": 1.33}
{"sequence": "GGACGTAGAT", "switch fluorescence ratio": 1.01}
{"sequence": "GGACTAATTC", "switch fluorescence ratio": 1.05}
{"sequence": "GGACTATAGA", "switch fluorescence ratio": 1.03}
{"sequence": "GGACTCCTGG", "switch fluorescence ratio": 0.986}
{"sequence": "GGACTCCTGT", "switch fluorescence ratio": 0.972}
{"sequence": "GGACTTTTCG", "switch fluorescence ratio": 1.06}
{"sequence": "GGAGAAACTT", "switch fluorescence ratio": 0.989}
{"sequence": "GGAGAAATGC", "switch fluorescence ratio": 1.2}
{"sequence": "GGAGACTCAT", "switch fluorescence ratio": 0.957}
{"sequence": "GGAGACTCTC", "switch fluorescence ratio": 0.968}
{"sequence": "GGAGAGGATG", "switch fluorescence ratio": 1.01}
{"sequence": "GGAGATACGG", "switch fluorescence ratio": 1.01}
{"sequence": "GGAGCCAAGT", "switch fluorescence ratio": 1.08}
{"sequence": "GGAGCCGACC", "switch fluorescence ratio": 1.08}
{"sequence": "GGAGCCTGG", "switch fluorescence ratio": 0.974}
{"sequence": "GGAGCCTGT", "switch fluorescence ratio": 1.02}
